In general, % Inhibition refers to the change of the read-out against control, counted positive when it falls.

About 540 (0.36%) of roughly 150,000 compounds showed an effect of 50% or more. Some of the results follow.

This test has as its system Plasmodium falciparum. In words: Primary screen in NF54 nanoGlo assay, in single point, at 2uM, 72h; a lower Z score goes with more inhibition. In kind it is functional, Erythrocyte. The following applies: timepoint 72 hour.
In the case of `C[C@@H](CN(C)c1ccnc(Cc2ccccc2)n1)C(=O)O`, the “% Inhibition” value is given as -2% and the Z score worked out at 0.3.
With `CC(=O)NC(C)(C)C(=O)N1CC[C@@]2(CCCN(C3CCCCC3)C2=O)C1`, the “% Inhibition” value is reported as 7% and the Z score is recorded as -1.22.
Regarding `CCc1nnc(CN(C(=O)c2nn3cc(C)cnc3c2Cl)C(C)C)o1`, the “% Inhibition” value is reported as -10% and the Z score came to 0.94.
In the case of `O=C(NC(c1ccccc1)c1ccccc1)c1cc2n(n1)C[C@@H](O)CNC2=O`, the “% Inhibition” value is reported as -13% and the Z score is on record as 2.48.
On to `Nc1c(-c2ccc(Cl)cc2)cnc2c(-c3ccccc3)c(COc3ccccc3)nn12`, for which the “% Inhibition” value is -5% and the Z score worked out at 0.85.
On to `COc1ccc(N2CCN(C3=NC(=O)[C@@H](C#N)C4(CCCCC4)N3)CC2)cc1`, for which the “% Inhibition” value was 6% and the Z score is given as -0.78.
On to `CCOc1ccc(N(C)CC(=O)NC[C@H]2CCCO2)cc1`, for which the “% Inhibition” value is listed as 1% and the Z score was -0.08.
Regarding `O=C(NCC1CCN(C(=O)c2ccoc2)CC1)c1cccc(Cl)c1`, the “% Inhibition” value is reported as -8% and the Z score turned out to be 1.18.
The corresponding values for `Cc1nc2c(c(N3CCCC3)n1)CCN(C(=O)Cc1csc(C)n1)C2` are -19% and 1.71.
In the case of `CC(C)(C)NC(=O)COc1ccnc(C(F)(F)F)n1`, the “% Inhibition” value is -2% and the Z score came out at 0.28.
For the molecule `Cc1cccnc1[C@H](C1CC1)n1cnc2cn(C)nc2c1=O`, the “% Inhibition” value was -13% and the Z score came out at 2.48.
Regarding `Cc1nc(N2CCNC(=O)C2)nc2cc(S(C)(=O)=O)ccc12`, the “% Inhibition” value is given as -6% and the Z score worked out at 0.98.
Take `CCCc1nnsc1C(=O)N[C@H]1CC[C@H](Oc2cnccn2)CC1`: the “% Inhibition” value worked out at 9% and the Z score is -0.98.
For the molecule `Cc1ccn(CC(=O)N2CC(F)(F)C[C@H]2Cn2cc(C(=O)NCc3ccccc3)nn2)n1`, the “% Inhibition” value stood at 34% and the Z score is listed as -3.87.
As to `O=C(c1cc(-c2ccco2)[nH]n1)N1CCC2(C1)OCCO2`, the “% Inhibition” value is recorded as -10% and the Z score is recorded as 1.81.
Consider `COc1ccc(C(=O)N(CC2CC2)C2CC2)nn1`, for which the “% Inhibition” value was -15% and the Z score was 1.33.
On the same counts, the results for `Cc1ncccc1CNc1ccc(F)c(N2CCS(=O)(=O)CC2)c1` are -10% and 1.3.
Regarding `CC(C)CN(C)C(=O)[C@@H]1CN(c2ncnc3ccsc23)CCO1`, the “% Inhibition” value was 19% and the Z score is -2.59.
The corresponding values for `O=C(Nc1ccccc1F)N1CC(F)(F)C[C@H]1CN1CCCCCC1` are -10% and 1.79.
For `CC(C)C[C@@H](C(N)=O)n1cc(-c2ncc[nH]2)nn1`, the “% Inhibition” value was found to be 7% and the Z score is -1.18.
As for `CCn1c(CNC(=O)C2CCC2)nc2c1CN(S(=O)(=O)c1ccc(F)cc1)CC2`, the “% Inhibition” value was -4% and the Z score is listed as 0.46.
`C=C1C2(C(=O)N3CCN(c4ccccc4F)CC3)CCC(C2)C1(C)C` (centres undefined): the “% Inhibition” value came out at 5% and the Z score is on record as -0.57.
With `Cc1ccc(-n2cc(-c3ccccc3)nc2NC(=O)CN(C(=O)Cc2ccccc2)C(C)C)cc1F`, the “% Inhibition” value came to 2% and the Z score is recorded as -0.39.
Consider `CCC(NC(=O)CCN1Cc2ccccc2C1)[C@H]1C[C@H](O)C1` (some centres undefined), for which the “% Inhibition” value is listed as -15% and the Z score was determined as 2.65.
For `O[C@@]1(CN2CCC(COc3ccc4c(c3)CCC4)CC2)CCCNC1`, the “% Inhibition” value is on record as 41% and the Z score is given as -4.19.
As to `Cc1nccc(NC(=O)NCc2ccco2)c1Cl`, the “% Inhibition” value was -4% and the Z score is 0.34.
For `CCN1CCO[C@@H](CNCc2cnc(N3CCOCC3)nc2)C1`, the “% Inhibition” value was -22% and the Z score is 4.05.
Take `CC(C)[C@H](NC(=O)Nc1ccccc1)C(=O)N1CCC(C(N)=O)CC1`: the “% Inhibition” value is recorded as -14% and the Z score came to 1.3.
On to `CC(C)N1CCC(CC(=O)N[C@@H](CO)c2ccccc2)CC1`, for which the “% Inhibition” value is reported as 5% and the Z score was -0.62.
As to `O=S(=O)(CCC1CC1)N[C@H]1CCN(CC2CC2)C1`, the “% Inhibition” value was -6% and the Z score is 0.84.
On to `Cn1ncc(Cl)c1C(=O)N(C1CCCCC1)C1CCCCC1`, for which the “% Inhibition” value was determined as 33% and the Z score was -4.74.
Turning to `C[C@@]12CCCN1C(=O)N(C1CCN(c3c(F)cccc3F)C1=O)C2=O` (some centres undefined), the “% Inhibition” value is listed as -13% and the Z score is listed as 1.73.
On the same counts, the results for `OCc1sncc1-c1cccc(C2CCC2)c1` are -8% and 0.69.
On the same counts, the results for `Cc1nc(NCc2sccc2C)n(C)n1` are 1% and -0.15.
On the same counts, the results for `Cc1ccc(C2CCN(C(=O)[C@H](C)c3cccc(O)c3)CC2)cn1` are -11% and 1.49.
For `COc1cccc(F)c1-c1c(-c2ccccc2)ncn1CCc1nncn1C`, the “% Inhibition” value was -7% and the Z score is 1.21.
On to `COCC(NC1C2CCOC2C12CCC2)C1CC1` (centres undefined), for which the “% Inhibition” value is -15% and the Z score was 1.56.
`Cc1noc(C2CCCN(C(C(=O)O)c3ccccc3Br)C2)n1` (centres undefined): the “% Inhibition” value was -13% and the Z score was 1.35.
As to `Cc1cc(OC2COCC2N)nc2ccccc12` (centres undefined), the “% Inhibition” value is -2% and the Z score is 0.29.
Turning to `c1cncc(-c2nc3c(c(N4CCc5n[nH]cc5C4)n2)CCNCC3)c1`, the “% Inhibition” value is 2% and the Z score was -0.22.
For `N#CCCCS(=O)(=O)Cc1cc(Cl)ccc1Cl`, the “% Inhibition” value is on record as -7% and the Z score is recorded as 0.76.
As to `COc1ccccc1NC(=O)Nc1ccc2c(c1)C(=O)N(C)C2=O`, the “% Inhibition” value came out at 1% and the Z score was -0.12.
